Experimental data: PMC4336329 (PLoS ONE, 2015)
Out of some 310,000 compounds screened, about 14,000 (4.5%) showed an effect of 50% or more. Effects have a minus sign here. Some of the results follow.

Target: human ether-à-go-go-related gene (hERG) potassium channel (human, UniProt Q12809)
Test: primary screen, population patch clamp on CHO cells stably expressing hERG
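Further: peak tail current of the secondary pulse compared with the same well before compound.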

human ether-à-go-go-related gene (hERG) potassium channel, sequence (Q12809 whole entry, looked up): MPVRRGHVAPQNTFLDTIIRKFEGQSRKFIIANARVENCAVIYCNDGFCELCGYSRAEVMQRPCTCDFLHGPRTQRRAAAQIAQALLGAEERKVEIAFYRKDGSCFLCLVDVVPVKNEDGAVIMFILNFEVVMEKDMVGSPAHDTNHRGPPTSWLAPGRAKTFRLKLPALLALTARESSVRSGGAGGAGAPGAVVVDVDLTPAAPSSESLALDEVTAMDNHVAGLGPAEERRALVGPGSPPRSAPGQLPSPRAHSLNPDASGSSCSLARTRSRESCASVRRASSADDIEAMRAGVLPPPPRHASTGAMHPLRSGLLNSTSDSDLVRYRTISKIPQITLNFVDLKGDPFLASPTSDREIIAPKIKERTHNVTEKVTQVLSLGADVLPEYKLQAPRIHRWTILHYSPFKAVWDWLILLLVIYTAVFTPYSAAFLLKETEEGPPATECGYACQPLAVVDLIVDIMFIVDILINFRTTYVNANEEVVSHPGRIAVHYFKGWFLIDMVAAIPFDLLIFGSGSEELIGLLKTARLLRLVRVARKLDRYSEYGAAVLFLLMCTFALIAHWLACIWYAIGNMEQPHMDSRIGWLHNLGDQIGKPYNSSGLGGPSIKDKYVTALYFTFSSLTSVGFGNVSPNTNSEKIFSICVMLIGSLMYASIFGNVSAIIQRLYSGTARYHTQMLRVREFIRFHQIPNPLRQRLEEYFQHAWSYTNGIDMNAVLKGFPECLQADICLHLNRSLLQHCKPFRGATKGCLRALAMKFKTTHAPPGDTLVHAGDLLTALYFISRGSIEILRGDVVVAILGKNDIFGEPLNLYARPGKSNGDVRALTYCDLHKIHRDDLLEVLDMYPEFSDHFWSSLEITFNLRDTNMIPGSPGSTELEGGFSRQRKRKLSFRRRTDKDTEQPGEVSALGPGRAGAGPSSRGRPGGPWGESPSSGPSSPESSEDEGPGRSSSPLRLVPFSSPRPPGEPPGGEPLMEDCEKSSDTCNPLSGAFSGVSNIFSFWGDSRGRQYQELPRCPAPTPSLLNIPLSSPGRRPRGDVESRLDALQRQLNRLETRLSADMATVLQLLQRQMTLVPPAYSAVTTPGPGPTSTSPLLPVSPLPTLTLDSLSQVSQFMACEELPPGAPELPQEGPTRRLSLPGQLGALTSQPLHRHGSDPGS

Point of comparison: `CCn1c(SCc2cccc(F)c2)nnc1-c1cccnc1`, “hERG current change (%, negative = inhibition) at 10uM” value -0.291%. Against it:
- CC(=O)Nc1cccc2c1C(=O)N(c1ccccc1C)C2=O — higher, 16.2%
- COc1ccc(C(=O)COc2ccc(F)cc2)c(O)c1 — lower, -10.4%
- Cc1ccc2nc(N3C(=O)C(O)=C(C(=O)c4ccc(C)o4)C3c3cccc(O)c3)sc2c1 (stereo not drawn) — higher, 21.9%
- O=C(CNCc1ccccn1)Nc1cc(C(F)(F)F)ccc1N1CCOCC1.O=C(O)C(=O)O — lower, -57.5%
- Cc1ccc(-c2nc3ccc(Cl)cc3n2OC(=O)N(C)C)cc1 — higher, 13.4%
- CC(C)OCCCn1c(=NC(=O)c2cccs2)c(C#N)cc2c(=O)n3ccccc3nc21 — lower, -77.6%
- Cc1cccc(NC(=O)CSc2nnc(C)n2Cc2ccccc2)c1 — lower, -29%
- CC(=O)Nc1ccc2nc(NC(=O)c3ccco3)sc2c1 — higher, 1.09%
- Cc1ccccc1N(C(=O)c1csnn1)C(C(=O)NC(C)(C)C)c1cccs1 (stereo not drawn) — lower, -0.871%
- Cc1ccc(NS(=O)(=O)c2ccc3c(c2)oc(=O)n3C)cc1 — higher, 19.6%
- CCOC(=O)c1cnc2nc(SC)nn2c1N — higher, -0.21%
- O=c1[nH]ncc(N2CCN(Cc3ccccc3)CC2)c1Cl — lower, -14.4%
- CC(/C=C/c1ccco1)=N/NC(=O)c1ccc(C)nc1 — higher, 18.6%
- O=C(COCc1cc(-c2ccc3c(c2)OCO3)on1)N1CCN(c2cccc(C(F)(F)F)c2)CC1 — higher, 9.73%
- O=[N+]([O-])c1ccc(Nc2ccc(F)cc2)nc1 — higher, 0.417%
- COc1ccc(CN(C)C(=O)c2oc3ccccc3c2CSC)cc1F — higher, 14.4%
- CCN(CC)S(=O)(=O)N1CCC(C(=O)NC2CCCc3ccccc32)CC1 (stereo not drawn) — lower, -8%
- Cc1cc(C)c(S(=O)(=O)c2ccccc2)c(OC(=O)c2ccc(Cl)cc2Cl)n1 — lower, -12.3%
- CN(CCOC(=O)c1ccccc1)Cc1ccccc1.Cl — lower, -10.2%
- O=C(Cn1c(-c2cscn2)nc2ccccc21)Nc1ccc(Cl)cc1 — lower, -7.59%
- CCn1c(CNC(=O)COc2ccc(C(C)C)cc2)nnc1SCC(=O)Nc1cc(F)ccc1C — lower, -65.7%
- COc1ccc(N(CC(=O)NC2CCCC2)C(=O)Cn2nnc(-c3ccc(C)cc3)n2)cc1OC — lower, -3.68%
- CCCN1CCN(CCCNC(=O)Cn2nc(-c3ccccc3)ccc2=O)CC1 — lower, -22.2%
- Cc1ccc(CNC(=O)CCC(=O)c2cccs2)cc1 — lower, -12.5%
- O=C(CN1C(=O)NC(Cc2c[nH]c3ccccc23)C1=O)Nc1cccc(S(=O)(=O)N2CCOCC2)c1 (stereo not drawn) — higher, 5.66%
- O=c1c2c(nc3cc(-c4cccc(Cl)c4)[nH]n13)CCC2 — lower, -4.13%
- CCOC(=O)C1C(c2ccc(O)c(OCC)c2)NC(=S)NC1(O)C(F)(F)F (stereo not drawn) — lower, -12.5%
- Fc1ccccc1NC(=S)NCc1ccc(Cl)cc1 — higher, 16.3%
- O=C(N/N=C/c1ccc(O)c(Br)c1)c1cc2c(ccc3ccccc32)o1 — higher, 13.1%
- Cc1nn(-c2ccccc2)nc1C(=O)NNC(=O)c1cccc2ccccc12 — lower, -16.5%
- O=C1C=C(c2ccc(O)cc2)C[C@@H](c2ccc(Cl)cc2)C1 — higher, 23.8%
- CCOc1ccc(S(=O)(=O)N2CCN(C(=O)c3cc(-c4ccccc4)nn3-c3ccccc3)CC2)cc1 — lower, -11%
- COc1ccc2[nH]cc(S(=O)(=O)c3ccc(C)cc3)c2c1 — lower, -3.08%
- COc1ccc(NC(=O)c2ccccc2S(=O)c2ccccc2C#N)cc1 (stereo not drawn) — lower, -4.48%
- C=CCn1c(SCC(=O)Nc2ccc(F)cc2)nc2cc(C(=O)O)ccc2c1=O — higher, 18.8%
- CC1=NN(C(N)=S)C(=O)C1N=Nc1cc(Cl)ccc1Cl (stereo not drawn) — higher, 28.1%
- CC1=C(C#N)C2C(/C1=N/O)C2(C)C (stereo not drawn) — higher, 18.7%
- COc1cn(-c2ccccc2)nc1C(=O)Nc1ccccc1 — higher, 2.77%
- CN(C1(C)CCS(=O)(=O)C1)S(=O)(=O)c1ccc2ccccc2c1 (stereo not drawn) — higher, 0.167%
- COc1cc(SC)ccc1C(=O)N1CCN(S(=O)(=O)/C=C/c2ccccc2)CC1 — lower, -56.5%
- C/C(=N\NC(=O)c1ccc(Br)o1)c1cc2c(cc1NC(=O)CCC(=O)O)OCO2 — higher, 10.5%
